Measured values taken from the supplement of paper PMC11417369.
The list shows a part of the results.

Test system: PfAP2-HC AP2 domain (GST-tagged)
Test: gcPBM binding intensity (ln(normalized median fluorescence intensity)); higher = stronger DNA binding
How it was run: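 The binding buffer was 1× PBS containing 1% milk, 0.2 mg/ml BSA, 0.5% salmon testes DNA and 0.03% Triton X-100. In it, GST-tagged P. falciparum DNA-binding domains expressed in E. coli were applied for 1 h to an Agilent 4 × 180k array of primer-extended double-stranded 36-bp intergenic genomic probes plus negative controls. Binding intensity, read with Alexa488 anti-GST antibody and a 488 nm scan, is the highest Masliner-normalised natural-log median intensity across replicate spots of either probe orientation.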

Sequence | gcPBM binding intensity (ln)
TTTTGCTTTTTTTTTCTTTTTTGTTTTATATATATT [CACACA_negctrl_site103] | 9.89
ACATATGGTATTTAAACACACAAAAAAGAAAGAAAA [CACACA_site991] | 9.87
AAATGGTAAGAAAATAAATAAAGTTCTACCACATAA [CACACA_negctrl_site1542] | 9.85
TAGAAAGAATATAATTGTACAAATGTTGATAGATAA [XGTACX_site7259] | 9.75
ATATATATATATATATATATATATGTTTGATTTTTT [XGTACX_negctrl_site98] | 9.48
ATTTTTCTTTTATTAACACACATATAAATAAATACA [CACACA_site2876] | 9.55
TGGGCGTCATAATGAACACACAATTATATTATGACT [CACACA_site3910] | 9.59
TTACACAAATAGCTGCATTTATAAAATACAATTAAA [CACACA_negctrl_site241] | 9.51
TTTTGTCAATTTTAGATTTTTCAATACATGGATATT [CACACA_negctrl_site319] | 9.57
ATATATATATATTTATGTACGAATATGTTTAATTTA [XGTACX_site3986] | 9.57
ATATATATAATAATATGTACGGAAAAAGCTTAAGCT [XGTACX_site5661] | 9.78
AAATATATATATTTACGTACATATATACAAATAGAG [XGTACX_site6067] | 9.72
TTATAAAGAACACAGACACACAAAGAAAGAACCAAT [CACACA_site4175] | 10.2
CACAAATAAATACATACACACATATATACTCATATA [CACACA_site4379] | 9.99
TGTCACTACAAATGAGTGCATTAAATAATTTGGAAA | 9.41
ATATGCAAAGAGTATAATCAAAATGTAAATAAATAA [GTGCAC_negctrl_site141] | 9.72
AATATTATTTATATTTGTACACAGTAATATAAAATA [XGTACX_site4884] | 9.57
CCATAGATATTTTATACACACATATAATATATTAAG [CACACA_site4363] | 9.71
AAAAATAAAGAAACAGGTACGCATATATTAAGATAT [XGTACX_site8097] | 9.98
AATATATTCCACATGTGTACATATATATATATATAT [XGTACX_site8006] | 10.1
TTTCCTTCTACAAAAAATTTTATCAAGAGGAAGTAC [CACACA_negctrl_site926] | 9.29
AATATATATCATCACACACACATACATAAATATATA [CACACA_site184] | 10.3
AGTTTATTTGTAAAAAGTACATATTTAAGAAAACTT [XGTACX_site2318] | 9.5

Sequence | gcPBM binding intensity (ln)
TTCTAACTCTAACAAGTGCAATATATATACATAATA | 9.33
AAATTTGGCAAACACACACACACACCCACACCCACA [CACACA_site8095] | 11.4
GAAAATAAAAAAAATAAAAAAAATAAAAAAAATTAT [XGTACX_negctrl_site443] | 9.48
TAAATATCTAAAGACTGTACAATTAAATATAAACAT [XGTACX_site1450] | 9.62
TTTTGTAACCTATGCACGCACACAAGAAAAAAACAA [CACACA_site3776] | 9.84
TATATTATATATATGTGTACATATAAATGTAACAAA [XGTACX_site5025] | 9.58
AATACATATAAAAGTACACACACACCCATATATATA [CACACA_site8220] | 10.5
ATAGAATACATATATGAACACACAGAGTTTTAAAAA [CACACA_site8879] | 9.9
TTTTTTTTTTGATGTTGTACATATATACTATATAAT [XGTACX_site1332] | 9.65
GTTCATATCTTTTGAGCACACATATATATATATAAA [CACACA_site9099] | 9.76
ATAAGTAAAAATAAAAAAAAAATATATATATATATA [CACACA_negctrl_site1816] | 9.59
ATGATTATAATTTAAAATATTTTACATAACCATTTC [GTGCAC_negctrl_site297] | 9.52
TTTAGCTATTATAGCTGTACAATGATAAAATAAATT [XGTACX_site6318] | 9.29
AATGAATCCTTATATACACACATTATTATATTATAT [CACACA_site3108] | 10
TTTTTGTTCTATATGGTGCATGTTTATATTCGTATT | 9.95
ATTAGCAACATTGATAAATATAAACACACGAAAACA [TGCATGCA_negctrl_site97] | 10.1
ATACCATAAATATTGTGTACATAAATATGTTAGTAA [XGTACX_site6077] | 9.66
TTTTAGAAATTTACTAAACTTTATATAACTATTGAA [TGCATGCA_negctrl_site280] | 9.45
CATGTTTATGCCGTTTGTACATATATATCTAAAAAA [XGTACX_site4336] | 9.41
CACGTATATATATATACACACACATATATATATGTA [CACACA_site7948] | 9.97
GAGAAAAGGAAATTCACACATATAAAGAAAGATCTA [CACACA_site5420] | 9.55
ATTGATACATCCAATACACACTACATATAATGATGT [CACACA_site8561] | 9.9
TTTTTTATATATACATATATATAAATATATATAACT [GTGCAC_negctrl_site385] | 9.58

Sequence | gcPBM binding intensity (ln)
ATATTAATAATATATGCATGCATTAACATATTGAAA [TGCATGCA_site951] | 9.64
GTATGTATGTATATATGTACACATTATTATTTAATG [XGTACX_site5802] | 9.75
TATGGAGAAATAAATAGTACGTATTTTATTTAAAAA [XGTACX_site3129] | 9.68
AAAAATATAAAAATAGCACACATATATACATATATA [CACACA_site7901] | 9.89
ATGTTCGATGATAAATGTACAAAAATAATGGAAGTA [XGTACX_site1916] | 9.74
TATAAAAATATTGAAAGTACTTATTAAAATATTATT [XGTACX_site3701] | 9.59
TTTCCTAGCACATGCACACAAAAAAAAAAAAAAAAA [CACACA_site1404] | 9.48
CTTGCAAAAAGTATATGTACATATATATATATATAT [XGTACX_site5792] | 9.61
TGTTTGCTTATGTGTTAAATATATATATATATATAT [TGCATGCA_negctrl_site218] | 9.69
ATTTTAGGAAAAAAAAGTACATATAATTTTTTATAT [XGTACX_site6954] | 9.41
CGAACACAAACACAAACACACATCAGATATAAATAT [CACACA_site6736] | 10.1
TTTTTTTTGATATATACACACAATAAATAAATATAA [CACACA_site7400] | 9.53
ATTTATTATTATATCACACATAATATATTAAATGAT [CACACA_site5821] | 9.61
CTATAATATGGTATTACACACTGTTATAAGTATGGC [CACACA_site7068] | 9.76
ATATATTTTTTGAATACACACATATTATCTGTAATA [CACACA_site4826] | 9.69
TATAAATAGAGACACACACACATATAAATAAATATT [CACACA_site7854] | 10.4
TATATTTCTTCTATAACATGCAGATATATGAAAATA [TGCATGCA_site971] | 9.32
TAATGAAATATTATGTGTACTTAAAAATTATTAAAT [XGTACX_site5261] | 9.5
ATTATTAACATATATATACACACGAAAAAATTATAT [CACACA_site625] | 9.91
AGAATTATTTTATGTTTGCACTTTTTTTTTCTATAA [GTGCAC_site9876] | 9.84
TATTCCTAATTGACAACACACACAACAAAAAAGGGA [CACACA_site8350] | 10.3
GTTTTCATCCAAAAAAGTACATTTATTTTTATACGA [XGTACX_site1039] | 9.39
GTAGTGGTTGAATATACACACATATATAAATAAATA [CACACA_site7282] | 9.83

Sequence | gcPBM binding intensity (ln)
ATGTATGAATTACATAGTACATAAGAAAAAATGAAG [XGTACX_site5942] | 9.91
GGAAAATCTTTATAATGTACATTATGATTATATAAT [XGTACX_site6256] | 9.66
AAATATAAAGTGCACACACACAAAAAAAGAAAAAAA [CACACA_site6452] | 10.2
TTAAAATATGAATAATGTACAAGAAATTTTATTAAT [XGTACX_site6314] | 9.58
ATTATTACATTTTTATGTACATATCAAATTTATACA [XGTACX_site7332] | 9.7
TTAACTTAAGGAGAGTGTACAAATAATAAAATATCT [XGTACX_site4118] | 9.64
TAACCTAAAATAACTACACACACATAAAAAAAAAAA [CACACA_site8807] | 11.2
ATATTTTTTACAAATTGTACATTTTTACAATTATTA [XGTACX_site7496] | 9.62
TATAAATTAAAATGTGTGCACTAAATTGAAATAGAA | 9.94
ATATATATATATAATAGTACATATATTTTTATTGGT [XGTACX_site711] | 9.65
TCACTTAATATTTAATGTACATAAGGTTCTTGTGCC [XGTACX_site1822] | 9.41
TTATATAACATTATTTGTACATATAAAATATGGATG [XGTACX_site8526] | 9.52
AAAAAAAATTTATGGGGTACATATTATAATATTATA [XGTACX_site3395] | 9.52
TATATAACCTATAGCACACATATATAATATATATTA [CACACA_site1834] | 9.67
TTCTATTCAAATGCAAAATTATTAAATAAAAAATAA [GTGCAC_negctrl_site708] | 9.32
TTATTTTTTTTAAATTGTACAAGGAACAGTGAAAAA [XGTACX_site4380] | 9.42
TTTGTGTGTACGCGTGTGCACATTTTTTTTTTTTTT | 9.89
TAAATGTCTTCAATGAAGTGGAAATGCTGTTATATA [CACACA_negctrl_site1155] | 9.5
AAAAAAAATTTTAATTGTACAAAAAAAAAAAATATA [XGTACX_site2259] | 9.63
TATATATGGGTAACCTTTTTTTTTTTTTTTCGAACA [CACACA_negctrl_site1303] | 9.27
